Measured values: the supplement of paper PMC8728848
Some of the results follow.

Assays:
Assay in all cases: glycan array binding signal (z-score within array); higher = stronger binding
Details in all cases: glycan notation: IUPAC condensed, linker removed
[1] = biological target: Neu5Ac(a2-3)GalNAc
Summary of the method: (§1)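 Glycan array data were curated from 3228 arrays in the Consortium for Functional Glycomics database and kept only where the protein sequence was available. Glycan names were converted to IUPAC-condensed notation, and columns mapping to the same glycan were averaged. The binding signal is a within-array Z-score, averaged across arrays of the same protein sequence at different concentrations or buffers and across linkers. Negative Z-scores can be read as non-binding.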

[2] = biological target: Neu5Ac(a2-3)GalNAc(b1-4)GlcNAc
Summary of the method: as §1

[3] = biological target: Neu5Ac(a2-3)[GalNAc(b1-4)]Gal(b1-4)Glc
Summary of the method: as §1

[4] = biological target: Neu5Ac(a2-3)[GalNAc(b1-4)]Gal(b1-4)GlcNAc
Summary of the method: as §1

[5] = biological target: Neu5Ac(a2-3)[GalNAc(b1-4)]Gal(b1-4)GlcNAc(b1-3)GalNAc
Summary of the method: as §1

[6] = biological target: Neu5Ac(a2-3)[Neu5Ac(a2-6)]GalNAc
Summary of the method: as §1

[7] = biological target: Neu5Ac(a2-6)Gal
Summary of the method: as §1

[8] = biological target: Neu5Ac(a2-6)Gal(b1-3)GlcNAc(b1-3)[Gal(b1-4)GlcNAc(b1-6)]Gal(b1-4)Glc
Summary of the method: as §1

[9] = biological target: Neu5Ac(a2-6)Gal(b1-4)Glc
Summary of the method: as §1

[10] = biological target: Neu5Ac(a2-6)Gal(b1-4)GlcNAc
Summary of the method: as §1

[11] = biological target: Neu5Ac(a2-6)Gal(b1-4)GlcNAc(b1-2)Man
Summary of the method: as §1

[12] = biological target: Neu5Ac(a2-6)Gal(b1-4)GlcNAc(b1-2)Man(a1-3)Man(b1-4)GlcNAc(b1-4)GlcNAc
Summary of the method: as §1

[13] = biological target: Neu5Ac(a2-6)Gal(b1-4)GlcNAc(b1-2)Man(a1-3)[Gal(b1-4)GlcNAc(b1-2)Man(a1-6)]Man(b1-4)GlcNAc(b1-4)GlcNAc
Summary of the method: as §1

[14] = biological target: Neu5Ac(a2-6)Gal(b1-4)GlcNAc(b1-2)Man(a1-3)[GlcNAc(b1-2)Man(a1-6)]Man(b1-4)GlcNAc(b1-4)GlcNAc
Summary of the method: as §1

[15] = biological target: Neu5Ac(a2-6)Gal(b1-4)GlcNAc(b1-2)Man(a1-3)[GlcNAc(b1-4)][Neu5Ac(a2-6)Gal(b1-4)GlcNAc(b1-2)Man(a1-6)]Man(b1-4)GlcNAc(b1-4)GlcNAc
Summary of the method: as §1

[16] = biological target: Neu5Ac(a2-6)Gal(b1-4)GlcNAc(b1-2)Man(a1-3)[Man(a1-6)]Man(b1-4)GlcNAc(b1-4)GlcNAc
Summary of the method: as §1

[17] = biological target: Neu5Ac(a2-6)Gal(b1-4)GlcNAc(b1-2)Man(a1-3)[Neu5Ac(a2-3)Gal(b1-4)GlcNAc(b1-2)Man(a1-6)]Man(b1-4)GlcNAc(b1-4)GlcNAc
Summary of the method: as §1

[18] = biological target: Neu5Ac(a2-6)Gal(b1-4)GlcNAc(b1-2)Man(a1-3)[Neu5Ac(a2-6)Gal(b1-4)GlcNAc(b1-2)Man(a1-6)]Man(b1-4)GlcNAc(b1-4)GlcNAc
Summary of the method: as §1

[19] = biological target: Neu5Ac(a2-6)Gal(b1-4)GlcNAc(b1-2)Man(a1-3)[Neu5Ac(a2-6)Gal(b1-4)GlcNAc(b1-2)Man(a1-6)]Man(b1-4)GlcNAc(b1-4)[Fuc(a1-6)]GlcNAc
Summary of the method: as §1

[20] = biological target: Neu5Ac(a2-6)Gal(b1-4)GlcNAc(b1-2)Man(a1-6)Man(b1-4)GlcNAc(b1-4)GlcNAc
Summary of the method: as §1

[21] = biological target: Neu5Ac(a2-6)Gal(b1-4)GlcNAc(b1-2)Man(a1-6)[Gal(b1-4)GlcNAc(b1-2)Man(a1-3)]Man(b1-4)GlcNAc(b1-4)GlcNAc
Summary of the method: as §1

[22] = biological target: Neu5Ac(a2-6)Gal(b1-4)GlcNAc(b1-2)Man(a1-6)[GlcNAc(b1-2)Man(a1-3)]Man(b1-4)GlcNAc(b1-4)GlcNAc
Summary of the method: as §1

[23] = biological target: Neu5Ac(a2-6)Gal(b1-4)GlcNAc(b1-2)Man(a1-6)[Man(a1-3)]Man(b1-4)GlcNAc(b1-4)GlcNAc
Summary of the method: as §1

[24] = biological target: Neu5Ac(a2-6)Gal(b1-4)GlcNAc(b1-2)[Neu5Ac(a2-6)Gal(b1-4)GlcNAc(b1-4)]Man(a1-3)[GlcNAc(b1-4)][Neu5Ac(a2-6)Gal(b1-4)GlcNAc(b1-2)[Neu5Ac(a2-6)Gal(b1-4)GlcNAc(b1-6)]Man(a1-6)]Man(b1-4)GlcNAc(b1-4)GlcNAc
Summary of the method: as §1

[25] = biological target: Neu5Ac(a2-6)Gal(b1-4)GlcNAc(b1-2)[Neu5Ac(a2-6)Gal(b1-4)GlcNAc(b1-4)]Man(a1-3)[GlcNAc(b1-4)][Neu5Ac(a2-6)Gal(b1-4)GlcNAc(b1-4)Man(a1-6)]Man(b1-4)GlcNAc(b1-4)GlcNAc
Summary of the method: as §1

[26] = biological target: Neu5Ac(a2-6)Gal(b1-4)GlcNAc(b1-2)[Neu5Ac(a2-6)Gal(b1-4)GlcNAc(b1-6)]Man(a1-6)[Neu5Ac(a2-6)Gal(b1-4)GlcNAc(b1-2)Man(a1-3)][GlcNAc(b1-4)]Man(b1-4)GlcNAc(b1-4)GlcNAc
Summary of the method: as §1

[27] = biological target: Neu5Ac(a2-6)Gal(b1-4)GlcNAc(b1-3)Gal(b1-3)GlcNAc
Summary of the method: as §1

[28] = biological target: Neu5Ac(a2-6)Gal(b1-4)GlcNAc(b1-3)Gal(b1-4)GlcNAc
Summary of the method: as §1

[29] = biological target: Neu5Ac(a2-6)Gal(b1-4)GlcNAc(b1-3)Gal(b1-4)GlcNAc(b1-2)Man(a1-3)[Neu5Ac(a2-6)Gal(b1-4)GlcNAc(b1-3)Gal(b1-4)GlcNAc(b1-2)Man(a1-6)]GalNAc
Summary of the method: as §1

[30] = biological target: Neu5Ac(a2-6)Gal(b1-4)GlcNAc(b1-3)Gal(b1-4)GlcNAc(b1-3)Gal(b1-4)GlcNAc
Summary of the method: as §1

[31] = biological target: Neu5Ac(a2-6)Gal(b1-4)GlcNAc(b1-3)Gal(b1-4)GlcNAc(b1-3)Gal(b1-4)GlcNAc(b1-2)Man(a1-3)[Neu5Ac(a2-6)Gal(b1-4)GlcNAc(b1-3)Gal(b1-4)GlcNAc(b1-3)Gal(b1-4)GlcNAc(b1-2)Man(a1-6)]GalNAc
Summary of the method: as §1

[32] = biological target: Neu5Ac(a2-6)Gal(b1-4)GlcNAc(b1-3)Gal(b1-4)GlcNAc(b1-3)GalNAc
Summary of the method: as §1

[33] = biological target: Neu5Ac(a2-6)Gal(b1-4)GlcNAc(b1-3)Gal(b1-4)GlcNAc(b1-3)[Neu5Ac(a2-6)Gal(b1-4)GlcNAc(b1-3)Gal(b1-4)GlcNAc(b1-6)]GalNAc
Summary of the method: as §1

[34] = biological target: Neu5Ac(a2-6)Gal(b1-4)GlcNAc(b1-3)Gal(b1-4)GlcNAc(b1-6)[Gal(b1-3)]GalNAc
Summary of the method: as §1

[35] = biological target: Neu5Ac(a2-6)Gal(b1-4)GlcNAc(b1-3)Gal(b1-4)[Fuc(a1-3)]GlcNAc(b1-3)Gal(b1-4)[Fuc(a1-3)]GlcNAc
Summary of the method: as §1

[36] = biological target: Neu5Ac(a2-6)Gal(b1-4)GlcNAc(b1-3)GalNAc
Summary of the method: as §1

[37] = biological target: Neu5Ac(a2-6)Gal(b1-4)GlcNAc(b1-3)[Neu5Ac(a2-6)Gal(b1-4)GlcNAc(b1-6)]GalNAc
Summary of the method: as §1

[38] = biological target: Neu5Ac(a2-6)Gal(b1-4)GlcNAc(b1-6)GalNAc
Summary of the method: as §1

B1: PhoSpL (Pholiota squarrosa) (peptide)
chain: APVPVTKLVCDGDTYKCTAYLDFGDGRWVAQWDTNVFHTG
- glycan array binding signal (z-score) [1]: 0.028
- glycan array binding signal (z-score) [2]: -0.046
- glycan array binding signal (z-score) [3]: -0.38
- glycan array binding signal (z-score) [4]: -0.438
- glycan array binding signal (z-score) [5]: 0.249
- glycan array binding signal (z-score) [6]: -0.123
- glycan array binding signal (z-score) [7]: -0.245
- glycan array binding signal (z-score) [8]: 0.041
- glycan array binding signal (z-score) [9]: -0.201
- glycan array binding signal (z-score) [10]: -0.059
- glycan array binding signal (z-score) [11]: 0.065
- glycan array binding signal (z-score) [12]: -0.169
- glycan array binding signal (z-score) [13]: 0.874
- glycan array binding signal (z-score) [14]: -0.094
- glycan array binding signal (z-score) [15]: -0.368
- glycan array binding signal (z-score) [16]: -0.244
- glycan array binding signal (z-score) [17]: -0.405
- glycan array binding signal (z-score) [18]: -0.25
- glycan array binding signal (z-score) [19]: 4.01
- glycan array binding signal (z-score) [20]: -0.048
- glycan array binding signal (z-score) [21]: -0.355
- glycan array binding signal (z-score) [22]: -0.639
- glycan array binding signal (z-score) [23]: -0.232
- glycan array binding signal (z-score) [24]: -0.591
- glycan array binding signal (z-score) [25]: -0.382
- glycan array binding signal (z-score) [26]: -0.203
- glycan array binding signal (z-score) [27]: -0.422
- glycan array binding signal (z-score) [28]: 0.045
- glycan array binding signal (z-score) [29]: 0.095
- glycan array binding signal (z-score) [30]: 0.037
- glycan array binding signal (z-score) [31]: 0.668
- glycan array binding signal (z-score) [32]: -0.287
- glycan array binding signal (z-score) [33]: 0.487
- glycan array binding signal (z-score) [34]: -0.257
- glycan array binding signal (z-score) [35]: -0.067
- glycan array binding signal (z-score) [36]: -0.044
- glycan array binding signal (z-score) [37]: 0.236
- glycan array binding signal (z-score) [38]: 0.412
